# Source: article PMC4336329 (PLoS ONE, 2015)
# Among all 310,000 compounds or so, about 14,000 (4.5%) showed an effect of 50% or more. The effect is printed as a negative number. The list shows a part of the results.
# Target: human ether-à-go-go-related gene (hERG) potassium channel (human, UniProt Q12809)
# Assay: primary screen, population patch clamp on CHO cells stably expressing hERG
# 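Note: peak tail current of the secondary pulse compared with the same well before compound.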
# Sequence of human ether-à-go-go-related gene (hERG) potassium channel (Q12809 whole entry, looked up): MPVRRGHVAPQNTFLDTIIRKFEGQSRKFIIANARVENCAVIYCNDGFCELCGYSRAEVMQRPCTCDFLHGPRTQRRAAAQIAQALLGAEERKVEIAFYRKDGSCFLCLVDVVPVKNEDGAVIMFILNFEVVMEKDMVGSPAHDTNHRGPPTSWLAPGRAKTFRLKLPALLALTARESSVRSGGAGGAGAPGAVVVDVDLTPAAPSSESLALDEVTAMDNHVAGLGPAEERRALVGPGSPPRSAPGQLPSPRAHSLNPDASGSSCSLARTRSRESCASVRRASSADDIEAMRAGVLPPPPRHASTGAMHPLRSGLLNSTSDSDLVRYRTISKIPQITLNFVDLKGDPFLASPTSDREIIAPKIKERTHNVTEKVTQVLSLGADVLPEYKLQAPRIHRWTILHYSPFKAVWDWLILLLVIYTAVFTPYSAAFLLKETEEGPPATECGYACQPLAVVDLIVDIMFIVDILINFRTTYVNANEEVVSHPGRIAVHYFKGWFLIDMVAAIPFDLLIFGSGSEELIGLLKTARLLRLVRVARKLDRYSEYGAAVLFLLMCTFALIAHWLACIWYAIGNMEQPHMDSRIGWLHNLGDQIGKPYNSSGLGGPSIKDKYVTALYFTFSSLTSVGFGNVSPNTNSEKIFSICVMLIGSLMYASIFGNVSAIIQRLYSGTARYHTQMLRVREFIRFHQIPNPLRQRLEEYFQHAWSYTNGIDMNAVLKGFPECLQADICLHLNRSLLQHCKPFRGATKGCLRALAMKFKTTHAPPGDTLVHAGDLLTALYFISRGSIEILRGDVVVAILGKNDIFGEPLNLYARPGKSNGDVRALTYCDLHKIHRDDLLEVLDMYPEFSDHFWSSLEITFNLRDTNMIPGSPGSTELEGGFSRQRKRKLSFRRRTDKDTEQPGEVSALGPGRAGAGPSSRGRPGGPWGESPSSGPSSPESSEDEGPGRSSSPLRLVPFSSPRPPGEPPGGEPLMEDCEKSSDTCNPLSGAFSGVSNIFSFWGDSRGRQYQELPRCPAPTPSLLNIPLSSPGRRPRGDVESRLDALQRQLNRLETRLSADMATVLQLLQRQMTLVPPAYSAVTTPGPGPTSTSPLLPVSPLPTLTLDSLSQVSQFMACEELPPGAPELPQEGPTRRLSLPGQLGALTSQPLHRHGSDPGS
row,SMILES,"hERG current change (%, negative = inhibition) at 10uM [%]"
1,Cn1cnnc1SCC(=O)Nc1ccc(S(=O)(=O)N2CCOCC2)cc1,13.7
2,COc1ccc(-c2nnc(NC(=O)c3ccc4c(c3)OCCO4)o2)cc1,23.3
3,CSc1ncccc1C(=O)OCC(=O)N1CC(=O)Nc2ccccc21,8.21
4,C=CCNC(=O)c1ccccc1NC(=O)Cc1ccccc1[N+](=O)[O-],-9.54
5,COCCCn1cnc2c(c1=O)c1nc3ccccc3nc1n2-c1ccc(C)cc1,-37
6,Nc1nonc1-n1nnc(C(=O)N/N=C/c2ccccc2O)c1CN1CCCC1,-13.3
7,CC(NC(=O)c1cc(-c2ccccc2)nc2ccccc12)C1CCCO1 (centres unmarked),-11
8,CC(=O)N1N=C(c2ccc3ccccc3c2)OC12CCCC2,2.54
9,CCOC(=O)c1c(C)[nH]c(C(=O)CSc2nnc(C3CC3)n2N)c1C,4.75
10,CCN(CC)C(=O)c1ccccc1NS(C)(=O)=O,26.3
11,CC(=O)Nc1nc(C)c(-c2csc([NH2+]c3ccc(S(N)(=O)=O)cc3)n2)s1.[Br-],4.21
12,COc1ccccc1N=Nc1c(O)[nH]c(=S)[nH]c1=O,20.6
13,O=C1c2nc3ccccn3c2C(=O)N1Cc1ccccc1,7.96
14,O=C(CSc1n[nH]c(=O)[nH]c1=O)Nc1ccccc1C(=O)c1ccccc1,5.14
15,Cc1cc(C)c(NC(=O)C(C)(C)C)c(Cl)c1,-4.35
16,Cc1ccc(C(=O)NCCCNC(=O)c2ccccc2F)cn1,16.9
17,Cc1ccccc1-n1cc(CNCc2c(C(=O)N(C)C)nc3ccc(Cl)cn23)cn1,-7.4
18,CN(Cc1nccn1C)C(=O)C1CCC(=O)N(Cc2cccc(C(F)(F)F)c2)C1 (centres unmarked),-9.93
19,Cc1cc2c(C)nc(N/N=C/c3ccc([N+](=O)[O-])cc3)nc2o1,-16.2
20,CC1(C2CC2)NC(=O)N(CC(=O)Nc2cc(S(=O)(=O)N3CCCCC3)ccc2Cl)C1=O (centres unmarked),-11.4
21,CN(CC(=O)Nc1c(Cl)cccc1Cl)C(=O)CCNS(=O)(=O)c1ccccc1C(F)(F)F,-4.21
22,CCOc1ccccc1-n1nnnc1SCC(=O)Nc1cc(C)on1,-16.2

row,SMILES,"hERG current change (%, negative = inhibition) at 10uM [%]"
1,C=CCNC(=O)/C(=C\c1ccc(OC)cc1)NC(=O)c1ccc([N+](=O)[O-])cc1,-77.1
2,O=C(NCc1nnc(SCc2ccccc2)n1-c1ccccc1)C12CC3CC(CC(C3)C1)C2,-34.3
3,CC(C)c1ccc(C(=O)CSc2ncn[nH]2)cc1,8.04
4,COc1ccc(CCNC(=O)COC(=O)c2cc(S(=O)(=O)NCc3ccccc3)ccc2O)cc1OC,-1.06
5,COc1ccc(NC(=O)COc2coc(CN3c4ccccc4CC3C)cc2=O)cc1 (centres unmarked),5.06
6,CCc1ccc(NC(=O)CSc2nnc(-c3cnccn3)n2C)cc1,-21.2
7,Cc1ncc([N+](=O)[O-])n1CC(=O)NC1CCCCCC1,15.7
8,C/C(Cn1nnc2ccccc21)=N/OC(=O)c1c(F)cccc1F,12.5
9,CCOc1c2ccc(C(=O)NCc3cc(C(F)(F)F)cc(C(F)(F)F)c3)cc2nn1C,-5.13
10,CN(CC1CCOCC1)C(=O)CC1C(=O)NCCN1CC(c1ccccc1)c1ccccc1 (centres unmarked),-0.796
11,Cc1cccc(Cn2cc(SCC(=O)Nc3nccs3)c3ccccc32)c1,-0.134
12,O=C(O)COc1ccc(S(=O)(=O)N2CCCC2)cc1,19.5
13,O=S1(=O)CCC(=Nc2ccc(Cl)cc2)c2ccsc21,12.4
14,Cc1cc2cc(CNC(=S)Nc3ccc(OC(F)F)cc3)ccc2[nH]1,-4.07
15,Cc1cc(C)nc(SCCn2c(N3CCCCC3)nc3c2c(=O)n(C)c(=O)n3C)n1,-4.05
16,COc1cc(C(=O)NNC(=O)c2ccoc2C)cc(OC)c1OC,18.1
17,O=C(Oc1ccc(Br)cc1C(=O)/C=C/c1ccccc1F)c1ccco1,7.3
18,COc1cccc(NC(=O)COC(=O)c2ccc(C)c(S(=O)(=O)N3CCCCC3)c2)c1,2.07
19,CCOC(=O)c1ccccc1NC(=O)c1nc2nccc(C)n2n1,-19.8
20,Cc1ccc(O)c(-c2[nH]ncc2C(=O)c2ccc(Cl)cc2)c1,21.5
21,COc1ccc(CC(=O)N(C)Cc2cccc(F)c2)cc1S(=O)(=O)N1CCOCC1,-16.9
22,O=C1COc2ccc(C(=O)CSc3nnnn3-c3ccccc3)cc2N1,-10.4

row,SMILES,"hERG current change (%, negative = inhibition) at 10uM [%]"
1,CCn1cc(C(=O)O)c(=O)c2cnc(N3CCN(C(=S)NC(=O)c4ccc(Br)cc4)CC3)nc21,-4.77
2,Cc1cccc(N2CCN(S(=O)(=O)c3ccc4c(c3)C(C)(C)C(=O)N4C)CC2)c1C,5.06
3,Oc1ccc(/C=N/Nc2cc(N3CCCC3)nc(N3CCCC3)n2)cc1,1.56
4,COc1ccc(C(=O)O/N=C(\N)c2ccccn2)cc1[N+](=O)[O-],4.09
5,Nc1ccc(S(=O)(=O)N2CCCCC2c2cccnc2)cc1 (centres unmarked),-6.2
6,COc1ccc(-c2ccc(NCCN3CCOCC3)nn2)cc1OC,12.2
7,COc1ccccc1N(C1=NCCCS1)S(=O)(=O)c1ccc(C(C)(C)C)cc1,-0.345
8,CCOc1ccc(CNC(=O)c2cc3oc4ccccc4c3n2C)cc1,17.8
9,COc1ccc(CC(=O)Nc2c3c(nn2-c2cccc(C)c2C)CS(=O)(=O)C3)cc1,-24.5
10,O=C(O)c1ccc2noc(-c3ccccc3)c2c1,13.2
11,CSc1ncc(Cl)c(C(=O)Nc2c(C)cccc2C)n1,28.5
12,CCOc1ccc(OCCC(=O)NNC(=O)c2ccncc2)cc1,-19.6
13,CCCC(C(=O)NC1CCCCC1)N(CC1CCCO1)C(=O)CNS(=O)(=O)c1ccc(F)cc1 (centres unmarked),-21.1
14,Cc1nc(-c2ccc([N+](=O)[O-])cc2)sc1C(=O)O,10.3
15,O=C(Nc1cccc(NC(=O)c2ccccc2[N+](=O)[O-])n1)c1ccccc1[N+](=O)[O-],9.48
16,Cc1ccc(C(=O)Nc2nccc(C)n2)cc1,16.2
17,CCOC(=O)/C=C/C(=O)Nc1ccc(S(=O)(=O)Nc2c(C)cc(C)cc2C)cc1,7.22
18,COc1ccc(-c2cc(C(=O)N3CCCCCC3)c3ccccc3n2)c(OC)c1,-18.6
19,Cc1ccc(S(=O)(=O)n2nc(OC(=O)c3c(F)cccc3Cl)cc2N)cc1,-26.7
20,CC(C)C1=NOC(C(=O)N2CCC(N3CCC(C(=O)N4CCOCC4)CC3)CC2)C1 (centres unmarked),14.4
21,Cc1nnc(C)n1/N=C/c1cccn1C,3.31
22,CCOc1ccc(-c2c(=O)n(OCc3ccc([N+](=O)[O-])cc3)c3ccccc3[n+]2[O-])cc1,-14.2

row,SMILES,"hERG current change (%, negative = inhibition) at 10uM [%]"
1,Cc1ccc2nc3c(cc2c1)c(C)nn3-c1ccccc1,16
2,O=C(NCc1ccco1)/C(=C\c1ccco1)NC(=O)c1ccco1,2.27
3,NC(=O)c1nsc(C(=O)N(c2ccccc2)C(C(=O)NCc2ccc(F)cc2)c2ccc(O)cc2)c1N (centres unmarked),1.07
4,COc1cccc(-c2cc(C(=O)Nc3c(C)nn(Cc4ccccc4)c3C)no2)c1,6.3
5,COc1ccc(N2CC(C(=O)N[C@@H](C)C(=O)NCc3ccccc3OC)CC2=O)cc1 (some centres unmarked),11.1
6,O=C(NCC1CCCO1)c1ccc(Oc2ccc([N+](=O)[O-])cc2)cc1 (centres unmarked),-60.8
7,Cc1ccc(Br)cc1S(=O)(=O)N1CCN(c2ccccc2)CC1,-3.42
8,Cc1ccccc1CC(=O)NC1CCCc2ccccc21 (centres unmarked),24.8
9,CN(C)c1ccc(/C=N/NC(=O)c2ccnn2C)cc1,0.696
10,CCN(Cc1ccccc1)C(=O)Cn1c(=O)n(CC(=O)N2CCCCC2)c(=O)c2sccc21,7.16
11,Fc1cc2[nH]cnc2cc1Cl,9.69
12,N#CC1=C(N)Nc2ncnn2C1c1ccccc1 (centres unmarked),10.6
13,O=C(Nc1cc(Cl)ccc1N1CCOCC1)c1cnccn1,1.99
14,CNC(=O)COc1coc(CN2CCN(c3ccccc3OC)CC2)cc1=O,13.6
15,COCCn1c(SCC(=O)Nc2ccc(OC)c(S(N)(=O)=O)c2)nc2ccccc21,2.06
16,CN1CCN(C(=S)c2ccc(OCC(=O)Nc3cccc(C(F)(F)F)c3)cc2)CC1,-11.2
17,CCn1nc(C(=O)N[C@@H](CCSC)c2nc3ccccc3[nH]2)c2ccccc2c1=O,-42.3
18,Cc1cnc(NC(=O)c2cc3c(C)nn(-c4ccccc4)c3s2)s1,9.03
19,Fc1ccc(CSc2nnc3ccccn23)c(Cl)c1,14.1
20,CCN(C1CCS(=O)(=O)C1)S(=O)(=O)c1ccc(OC)c(OC)c1 (centres unmarked),-9.93
